# Measurements from the supplement of paper PMC3334620.
# In all, about 33,000 sequences were measured (“E-score (-0.5 to 0.5)”: median about -0.035, highest 2% from about 0.34 on). The list shows a part of the results.
# Biological target: T1, Mot3 (UniProt P54785)
# T1 sequence: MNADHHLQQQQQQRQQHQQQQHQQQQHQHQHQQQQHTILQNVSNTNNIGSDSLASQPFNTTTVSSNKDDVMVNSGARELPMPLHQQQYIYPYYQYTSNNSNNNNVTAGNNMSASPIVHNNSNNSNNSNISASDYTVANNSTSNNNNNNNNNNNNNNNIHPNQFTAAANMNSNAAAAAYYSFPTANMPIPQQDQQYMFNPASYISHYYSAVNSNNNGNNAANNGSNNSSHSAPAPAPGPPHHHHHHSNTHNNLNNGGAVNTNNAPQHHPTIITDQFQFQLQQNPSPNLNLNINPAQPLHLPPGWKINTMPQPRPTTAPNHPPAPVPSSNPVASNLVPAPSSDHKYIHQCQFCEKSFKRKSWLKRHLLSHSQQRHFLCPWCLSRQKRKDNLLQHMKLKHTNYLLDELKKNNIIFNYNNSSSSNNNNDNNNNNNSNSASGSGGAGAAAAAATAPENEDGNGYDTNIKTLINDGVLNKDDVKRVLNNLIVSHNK
# Test: PBM E-score (8-mer binding enrichment) (E-score (-0.5 to 0.5)); higher = stronger / more preferred TF binding; most listed sequences are background and not binding sites
# Details: protein concentration: 200 nM; construct: GST-full length
# In short: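 Yeast transcription factors, full-length or as DNA-binding domains, were expressed with a GST tag using PURExpress in vitro transcription/translation. At about 100-200 nM they were applied to universal all-10-mer Agilent arrays, double-stranded by primer extension on fresh or once-stripped slides. Fluorescent anti-GST detected bound protein, and masliner normalised the scans. E-scores for ungapped eight-base words, pooled with reverse complements, came from the Universal PBM Analysis Suite.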
row,Sequence,PBM E-score
1,AGTATGGA,-0.144
2,ACGTACGA,-0.0917
3,CAGCCGTA,-0.2
4,ATGGCGAG,-0.0823
5,GGGCCGGA,-0.353
6,ACCAGACG,-0.164
7,ATACCAGA,-0.0343
8,GGTGCAAA,-0.0974
9,AAGACCTG,-0.079
10,AAAGCGAG,0.0551
11,AAAGCACG,0.048
12,CGAAAGGA,0.0272
13,CACCCCCA,-0.127
14,GCATTCTA,0.0333
15,AACCGCTG,0.0102
16,AATACCAG,0.0512
17,GCGTGGGA,-0.201
18,CCAAACAC,0.158
19,ACGTGTCC,-0.0702
20,AGTAAGAA,0.22
21,AAGAGAAA,-0.0221
22,GCTCAACC,-0.152
23,GAAATTGA,-0.0504
24,AGTTATCC,-0.0517
25,TGCGGGAA,-0.161

row,Sequence,PBM E-score
1,CTAGCTGA,-0.0565
2,ATTCGGCC,-0.0495
3,GTCATCCA,-0.0138
4,GGGATTAC,0.133
5,ACTTTCCA,0.0165
6,CATTTAGA,-0.136
7,CTCAGAGA,-0.203
8,TGGTTAAA,0.108
9,TATGCATA,0.1
10,CTCTCGTC,-0.248
11,CGCACATC,-0.154
12,GAAGTGCC,0.152
13,AAGGAACA,0.453
14,AATGGCCG,-0.0872
15,ATATCGTG,0.0368
16,ATCAACCG,-0.0778
17,CCCCAGGC,-0.0396
18,ATTGTATC,0.0238
19,ACAGAGGG,-0.131
20,ACACTGCC,0.0227
21,ATTGGGAC,-0.1
22,CTCACGGA,-0.131
23,AGGACCCT,0.0161
24,CGTAAAAA,0.258
25,AGACACAA,0.124

row,Sequence,PBM E-score
1,ATGCTTTG,0.182
2,GTGAATAA,0.154
3,ACCTTTCT,0.124
4,CTTGTGCC,0.215
5,ATAAATGC,-0.0513
6,CCTCTACC,-0.223
7,ATAATTAT,0.29
8,CACAAGAA,0.217
9,GGGATACC,-0.287
10,ATAGTGTA,0.0713
11,AGGATGGG,-0.266
12,AAGCTTCT,-0.0639
13,AGTTTTCA,-0.204
14,AAGCAAAC,0.0811
15,AGATATAG,0.0531
16,AGGTCTAG,-0.221
17,CATAGCAG,-0.0912
18,GGTCGACA,0.183
19,ACGCGAGT,0.166
20,TGTCTGAA,0.157
21,ACGAGCTC,-0.117
22,GATACCAC,-0.0749
23,ACGGACAG,-0.134
24,ACCATTCC,-0.0593
25,AACGTACC,0.0808

row,Sequence,PBM E-score
1,AAAGAACG,0.0624
2,CTTTGTAA,0.355
3,AGCAAGGG,-0.137
4,GAGCCGGA,-0.234
5,AACATTGC,0.211
6,CCTCCCCA,-0.035
7,AGTAACCG,-0.109
8,CGTTGGAA,0.0673
9,CAATGAAA,0.0186
10,AACTCAGC,-0.0251
11,CGTAGGGA,-0.0699
12,CTCTATTA,0.0327
13,CAGAGGGG,-0.305
14,ATAATAGG,0.212
15,ATCATGTC,0.245
16,ACTGTACT,-0.252
17,ACCCTGTA,0.112
18,CGTTGGCC,-0.0208
19,AAGGCTAG,-0.0838
20,AGTGGTCC,-0.168
21,CCTGGTAC,0.178
22,GTAATGTA,0.317
23,CCAACAAG,0.0479
24,ATCGTTAA,0.101
25,CTATTTTA,0.0926

row,Sequence,PBM E-score
1,AGGGTTCA,-0.0118
2,GTTACACA,0.357
3,CGTTACAG,0.0725
4,CGCATAGC,-0.00771
5,ACTCGTCT,-0.143
6,AATTTCAC,0.121
7,ACATCTTA,0.0996
8,AAGCACTC,-0.129
9,GCGGAGCA,-0.156
10,ACGAAGAT,-0.0209
11,ACACTGTC,0.0431
12,AATTGAGC,0.0168
13,CCAACTCC,-0.135
14,CGGGTTAG,-0.132
15,CCCACGAC,-0.311
16,TCGGGGAA,-0.0325
17,AGTCCGCG,-0.156
18,AAGGTCAG,-0.068
19,GAGTGAGC,-0.0747
20,GGGAACAA,0.0629
21,CTATTGGC,-0.177
22,CGAGGGAA,-0.112
23,ATATCGAT,-0.0715
24,AAAGCTTC,-0.124
25,CTATGCTA,0.0604

row,Sequence,PBM E-score
1,TTAATGAA,0.132
2,GCTTCCCA,-0.219
3,CTATCAAC,0.164
4,GAGTCTAC,-0.15
5,CAGGGGGA,-0.16
6,ATGTTGAC,0.273
7,ACAGCAGA,-0.0541
8,CCAAAGGG,-0.158
9,CCTTGCGC,0.0763
10,CCTACACG,0.336
11,GGACATCC,-0.26
12,CCAATCCC,-0.127
13,CAACTCTC,-0.124
14,AAGTTAAC,0.222
15,CGTATGTC,0.0292
16,ACTATCTC,-0.11
17,GGCGTTTA,0.0195
18,GTTTACTA,0.258
19,CAAATTTG,-0.0298
20,TACACCCA,0.0243
21,GTTTCTAA,0.133
22,CAGTGCAA,0.00231
23,ACCAGTCA,0.0697
24,ATAAATTA,0.195
25,GTTGACGA,-0.0072

row,Sequence,PBM E-score
1,CACCATAC,-0.118
2,TGCAGAAA,0.139
3,GCGCGATA,0.0202
4,AGGACAAA,0.0828
5,CACGTTCA,0.251
6,CCCGGTTC,-0.167
7,CATCTATC,-0.0463
8,TCGGGACA,-0.06
9,AGTAGGTG,-0.049
10,AAACCGCA,-0.127
11,GACCCTGA,-0.105
12,AAATTGCA,0.00719
13,CGGAACGA,0.0162
14,GTCTAACA,0.0301
15,AGTTGTCC,-0.097
16,GTCTACGA,-0.112
17,ATTGAGTC,-0.076
18,ACAGCGGC,-0.112
19,CGATCTGA,-0.207
20,ACATATGT,0.242
21,AGCTCCCC,-0.366
22,CTCTCCAG,-0.333
